Measured values: the supplement of paper PMC7826260
Some of the results follow. Cleavage of a single-stranded DNA pool by Rep nickase domains was read by sequencing (3 µM enzyme, 1 h, 37 °C); shown is the middle of each 90-letter strand. The score is log2 (uncut reads / reads without enzyme); uncut sequences lie near 0, cut ones below; no hit call is given. Because reads are shares of a total, they shift together; uncut strands gain when others are lost, and binding without cutting may add a little.

What was measured:
Experiment in all cases: uncleaved DNA left, log2 of reads against the no-enzyme library (log2 ratio); higher = less cleavage (more negative = more Rep cleavage of the k-mer); sequences stand for … in CTCGTCCG…ACCGGAGA
[1] = system: T1, Rep nickase domain of Muscovy duck circovirus
T1 sequence (Rep 1-111, printed without the tag): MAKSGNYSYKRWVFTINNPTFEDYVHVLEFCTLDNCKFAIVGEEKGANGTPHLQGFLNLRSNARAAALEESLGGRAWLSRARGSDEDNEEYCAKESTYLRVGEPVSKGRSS
Method: (§1)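 A pool of 90-nt single-stranded DNAs with seven random bases just before the constant AC of the nick site (name = the seven bases) was cut by 3 µM recombinant His6-SUMO-tagged Rep nickase domain (300 nM DNA, 50 mM HEPES pH 8.0, 50 mM NaCl, 1 mM MnCl2, 1 h, 37 °C, three replicates). Uncut DNA was amplified and sequenced.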

[2] = system: T2, Rep nickase domain of banana bunchy top virus
T2 sequence (Rep 1-94, printed without the tag): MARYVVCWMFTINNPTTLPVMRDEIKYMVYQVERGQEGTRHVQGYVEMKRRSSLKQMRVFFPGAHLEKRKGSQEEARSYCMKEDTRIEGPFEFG
Method: as §1

[3] = system: T3, Rep nickase domain of cabbage leaf curl virus
T3 sequence (Rep 1-116, printed without the tag): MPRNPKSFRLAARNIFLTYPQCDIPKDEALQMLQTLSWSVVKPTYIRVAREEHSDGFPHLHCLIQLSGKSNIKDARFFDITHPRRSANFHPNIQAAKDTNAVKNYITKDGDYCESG
Method: as §1

[4] = system: T4, Rep nickase domain of chickpea chlorotic dwarf virus
T4 sequence (Rep 1-124, printed without the tag): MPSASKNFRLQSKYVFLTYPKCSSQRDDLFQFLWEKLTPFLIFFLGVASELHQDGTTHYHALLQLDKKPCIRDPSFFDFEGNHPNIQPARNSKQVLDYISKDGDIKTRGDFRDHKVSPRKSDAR
Method: as §1

[5] = system: T5, Rep nickase domain of faba bean necrotic yellows virus
T5 sequence (Rep 1-98, printed without the tag): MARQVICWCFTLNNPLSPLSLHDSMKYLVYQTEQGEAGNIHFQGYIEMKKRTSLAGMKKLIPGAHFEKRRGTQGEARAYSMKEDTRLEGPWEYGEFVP
Method: as §1

[6] = system: T6, Rep nickase domain of maize striate mosaic virus
T6 sequence (Rep 1-117, printed without the tag): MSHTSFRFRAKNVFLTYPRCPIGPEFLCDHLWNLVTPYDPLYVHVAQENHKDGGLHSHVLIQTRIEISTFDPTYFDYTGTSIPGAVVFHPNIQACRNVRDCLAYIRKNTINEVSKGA
Method: as §1

[7] = system: T7, Rep nickase domain of porcine circovirus 2
T7 sequence (Rep 2-116, printed without the tag): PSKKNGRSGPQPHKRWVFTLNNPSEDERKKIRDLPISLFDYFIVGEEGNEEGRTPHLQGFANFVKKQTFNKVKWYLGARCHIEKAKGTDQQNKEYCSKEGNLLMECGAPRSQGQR
Method: as §1

[8] = system: T8, Rep nickase domain of tomato golden mosaic virus
T8 sequence (Rep 1-124, printed without the tag): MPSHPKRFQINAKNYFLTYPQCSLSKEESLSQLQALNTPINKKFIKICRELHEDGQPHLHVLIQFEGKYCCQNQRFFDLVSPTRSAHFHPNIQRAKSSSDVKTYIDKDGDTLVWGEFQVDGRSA
Method: as §1

[9] = system: T9, Rep nickase domain of tomato yellow leaf curl virus
T9 sequence (Rep 1-136, printed without the tag): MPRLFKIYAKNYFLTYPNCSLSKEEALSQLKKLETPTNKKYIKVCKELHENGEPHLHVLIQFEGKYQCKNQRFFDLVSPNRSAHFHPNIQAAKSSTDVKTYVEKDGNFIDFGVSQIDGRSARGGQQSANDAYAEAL
Method: as §1

[10] = system: T10, Rep nickase domain of wheat dwarf virus
T10 sequence (Rep 1-137, printed without the tag): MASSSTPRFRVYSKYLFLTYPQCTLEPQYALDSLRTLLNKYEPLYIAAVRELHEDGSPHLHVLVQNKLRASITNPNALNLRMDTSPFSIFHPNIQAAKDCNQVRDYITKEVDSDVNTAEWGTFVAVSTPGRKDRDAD
Method: as §1

Sequence	uncleaved DNA left (log2) [1]	uncleaved DNA left (log2) [2]	uncleaved DNA left (log2) [3]	uncleaved DNA left (log2) [4]	uncleaved DNA left (log2) [5]	uncleaved DNA left (log2) [6]	uncleaved DNA left (log2) [7]	uncleaved DNA left (log2) [8]	uncleaved DNA left (log2) [9]	uncleaved DNA left (log2) [10]
GCGTGAT	-0.142	-0.0211	0.153	0.588	-0.0392	1.08	-2.33	-0.00369	-0.015	-0.0974
ACCGTCC	-0.0746	-0.123	-0.237	-0.341	-0.0301	-0.649	-0.0263	-0.0826	-0.226	-0.202
GCGCTAC	0.0361	0.0197	0.153	-0.243	0.0909	0.25	0.193	-0.0542	0.0768	0.11
ATATTCT	-3.15	-0.178	-1.17	-2.84	-0.0244	-1.15	-3.22	-0.254	-0.0987	-0.249
